Data on 121 sequences can be found in the supplement of paper PMC10126150.

Sequences with one replicate were seen in a single cluster, so their values are uncertain.
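Further: ATP exposure 15 min at 22 °C before imaging.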

This data set concerns ATP. Description: switch fluorescence ratio, 500 uM ATP over buffer (Cy3 cluster intensity, sum of 5 cycles each) (fold (ratio)); higher = stronger signal-on switching upon ATP binding; sequences stand for … in TCGTCGGCAGCGTCAGATGTGTATAAGAGACAGTTTTTTTTTTTTTTTTTTTTTTTTT…TC. Particulars: aptamer strand: ATP DNA aptamer (quencher-CACCTGGGGGAGTATTGCGGAGGAAGG + anchor), 100 nM annealed; ATP concentration: 500 uM; one replicate. In short, it runs like this:
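Switching-strand clusters labelled with Cy3 on a modified Illumina MiSeq flow-cell were annealed to 100 nM quencher-labelled ATP aptamer, imaged in selection buffer, and re-imaged after 15 min with 500 uM ATP at 22 °C. This was done over five cycles with NaOH stripping and re-annealing in between. The fluorescence ratio is summed target-cycle over summed buffer-cycle Cy3 intensity per cluster, averaged per switch-domain sequence, excluding clusters outside 100-1000 RFU.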
Turning to GTGGCTTCGT, the switch fluorescence ratio worked out at 1.

As for GGGTGACCTT, the switch fluorescence ratio is 1.04. As for AGCATTAAGG, the switch fluorescence ratio came out at 0.953. For TGGGTCAAGG, the switch fluorescence ratio was found to be 0.969. Regarding ATCGAACACC, the switch fluorescence ratio was found to be 1.06. The result for ACGTCTCCGA reads 1.09; that for CAAATTCAAA, 1.03. Turning to TTAATCGATT, the switch fluorescence ratio amounted to 1. Regarding TACATTGGGG, the switch fluorescence ratio came to 1.01. As for TCATAGCCGT, the switch fluorescence ratio was 1.03. In the case of AGGAAAGTAT, the switch fluorescence ratio turned out to be 0.994.

As to ATTTTTCAC, the switch fluorescence ratio came to 1.07.

Take GATATGCC: the switch fluorescence ratio turned out to be 0.988. Consider AATGTTAGCT, for which the switch fluorescence ratio stood at 1.02. In the case of TCGCAAAGCG, the switch fluorescence ratio was determined as 1.01.

In the case of TGCGCCG, the switch fluorescence ratio was 1.03. Turning to GTTGCTCGTA, the switch fluorescence ratio stood at 0.836. Regarding TTTAGACGAT, the switch fluorescence ratio is 1.02.

Regarding CGTTTCCCCA, the switch fluorescence ratio amounted to 1.04. GCTTAAATGA: the switch fluorescence ratio was found to be 1. AGATAGACCA: the switch fluorescence ratio was 0.965.

As to GCTTGCATTA, the switch fluorescence ratio was 1.07.

For the sequence AAACAATACC, the switch fluorescence ratio was 1.6. On to CTGGTTGAGG, for which the switch fluorescence ratio came out at 1.02. For ACGGCTGCTT, the switch fluorescence ratio was 1.11. As to TAGCATAGTG, the switch fluorescence ratio was determined as 0.978.

Regarding GGCGTAAGT, the switch fluorescence ratio was determined as 0.978. The result for CACCCAAGCA reads 1.13; that for ACGGGCCGAA, 0.967.

In the case of GTGTTGTGTG, the switch fluorescence ratio was 0.995. Consider TCATGAGTGA, for which the switch fluorescence ratio is 0.993. In the case of ATCTAGGCGC, the switch fluorescence ratio was determined as 0.954. For GGAGAATTCT, the switch fluorescence ratio turned out to be 0.912.

On to GGAGATGATG, for which the switch fluorescence ratio came to 0.987.

As to GACGGTTAAT, the switch fluorescence ratio stood at 1.04. The result for GCGAATATAC reads 3.21; that for TGGTTGCATT, 1; that for TAACACTAAT, 1.04.

As to ATGTCCTGGA, the switch fluorescence ratio stood at 0.96. On to ATACGGAGGA, for which the switch fluorescence ratio amounted to 0.995.

As for GACTAATGAC, the switch fluorescence ratio came to 1.06. The result for CACGAGGGAT reads 1.94. For GATAAGTTAG the value was 1.01; for AGATAAGTGG, 0.997.

In the case of AGGGTTGAG, the switch fluorescence ratio turned out to be 0.989.

Consider GTGTGGGCAC, for which the switch fluorescence ratio turned out to be 1.02.

As to AAACGTGAGC, the switch fluorescence ratio worked out at 1.01. CGGGTATT: the switch fluorescence ratio was 0.985.

In the case of GACCCGGAAT, the switch fluorescence ratio came out at 1.73. The result for TGTTGCCTCT reads 1.01; that for TCGTTTTTT, 1; that for TCCCGAGGTG, 1.01. For TATGTTCTAT the value was 1.05.

For TTGATTTATG, the switch fluorescence ratio was determined as 1.02. With GCCATAGAGT, the switch fluorescence ratio stood at 0.987. In the case of AGTCAGGACT, the switch fluorescence ratio amounted to 1.01. ATCGGAAATA: the switch fluorescence ratio was found to be 1. Turning to AGCTTGTCA, the switch fluorescence ratio came to 0.984. For GCCGTACAGA, the switch fluorescence ratio amounted to 0.996.

For GGGGCAGTTT, the switch fluorescence ratio amounted to 0.987. For GGGCTTTGTT the value was 1.03; for CTTGGGGGTA, 0.984; for CCTTTAGGTG, 1.18. TCGGAGTGCC: the switch fluorescence ratio is 0.951. As for AAACTCGACC, the switch fluorescence ratio amounted to 1.22. On to CCGAAATTAA, for which the switch fluorescence ratio was found to be 1.68. TGAACGGAGA: the switch fluorescence ratio is 1.01. Turning to CTAAATAGTA, the switch fluorescence ratio is 1.01.

With ATGTCGTCA, the switch fluorescence ratio came to 0.906.

With AAGTCACAAA, the switch fluorescence ratio was determined as 1.08. For the sequence ACGGGGACGT, the switch fluorescence ratio was found to be 0.987. Consider AATAGAACGG, for which the switch fluorescence ratio amounted to 1.03. With TACCTTATTA, the switch fluorescence ratio is 1.07. For CATAACTAGT, the switch fluorescence ratio came to 1. Take TCATGCTCTC: the switch fluorescence ratio was 1.01.

On to CGATGTTGGA, for which the switch fluorescence ratio stood at 0.988. The result for CGGGTAATGC reads 2.07; that for GATGCTTTTA, 1.01; that for TACGCTCATG, 1. The result for TGAAGGAGAC reads 1.04. Consider AATTAATGTT, for which the switch fluorescence ratio came to 0.998. With GAAGACAATA, the switch fluorescence ratio amounted to 1.37. In the case of CACTACACAA, the switch fluorescence ratio amounted to 1.27. TTATAATTT: the switch fluorescence ratio turned out to be 1.01.

Regarding CATTTCGCAT, the switch fluorescence ratio was 2.99.

For the sequence AGCAATCCGC, the switch fluorescence ratio came out at 1.53. As to CTCGTAGTTC, the switch fluorescence ratio worked out at 1.08. Take GGCCCCCCAC: the switch fluorescence ratio came to 1. TTTCGCGCTT: the switch fluorescence ratio was 1.95. TGTGCTGCA: the switch fluorescence ratio was determined as 0.982. The result for TAAGAGCCTA reads 1.01. With CGGGTAGGC, the switch fluorescence ratio was determined as 0.952.

Consider AAAGGTTTT, for which the switch fluorescence ratio was found to be 1.02.

As for CTGCCACGTA, the switch fluorescence ratio stood at 1.13. As to AGCCAAATGA, the switch fluorescence ratio turned out to be 1.03. The result for GAAGGGTAAG reads 0.999; that for GTGGGGTG, 1.06; that for CTATACTTAG, 0.977.

For GGACCATCCT, the switch fluorescence ratio stood at 1.2. Turning to GGATGTGTTG, the switch fluorescence ratio was found to be 0.972. The result for GAAAGACCAG reads 1.02. As to GGTAGGCAGA, the switch fluorescence ratio worked out at 1.03.

Take TTTTTATA: the switch fluorescence ratio was 1.01. On to TACTCACCTC, for which the switch fluorescence ratio turned out to be 1.26. The result for GTAAGTGCGC reads 0.994. In the case of CGAAAAGGCA, the switch fluorescence ratio turned out to be 0.99. Regarding TCTTTGGTTA, the switch fluorescence ratio is 1.06. GATCATTTT: the switch fluorescence ratio was 1.02.

Take TGAGAAAAGA: the switch fluorescence ratio was determined as 0.995.

CCCCTTGGAG: the switch fluorescence ratio amounted to 1.26. Consider GATCTCTTCA, for which the switch fluorescence ratio worked out at 1.01. Take GGGCAACAGT: the switch fluorescence ratio was found to be 1. In the case of TATATGCCCA, the switch fluorescence ratio was found to be 0.977. For GGCACCAACC the value was 1.08; for CGAGGAGTTC, 1.01.

Regarding GGTGAGTCCA, the switch fluorescence ratio came out at 1.02. As to CATGGGAGGC, the switch fluorescence ratio is 1.08. On to GCAGGTAAAG, for which the switch fluorescence ratio is 1.01.

Consider CGCCTCTGGG, for which the switch fluorescence ratio stood at 1.07. In the case of GCCCGGTGGC, the switch fluorescence ratio was 1.1. Regarding GATATACGTA, the switch fluorescence ratio is 0.959.
